Drawing on PMC13086964, “USP7 deubiquitinase stabilizes FAN1 to support DNA crosslink repair and suppress CAG repeat expansion” (Nature Communications, 2026), this text covers binding for six substances.

By UniProt entry, the sequences of proteins in these tests, tags left out. Where a name states a change or a piece, a line headed by the entry shows the natural chain unless it says otherwise. Residues count along the entry.
UniProt Q9Y2M0: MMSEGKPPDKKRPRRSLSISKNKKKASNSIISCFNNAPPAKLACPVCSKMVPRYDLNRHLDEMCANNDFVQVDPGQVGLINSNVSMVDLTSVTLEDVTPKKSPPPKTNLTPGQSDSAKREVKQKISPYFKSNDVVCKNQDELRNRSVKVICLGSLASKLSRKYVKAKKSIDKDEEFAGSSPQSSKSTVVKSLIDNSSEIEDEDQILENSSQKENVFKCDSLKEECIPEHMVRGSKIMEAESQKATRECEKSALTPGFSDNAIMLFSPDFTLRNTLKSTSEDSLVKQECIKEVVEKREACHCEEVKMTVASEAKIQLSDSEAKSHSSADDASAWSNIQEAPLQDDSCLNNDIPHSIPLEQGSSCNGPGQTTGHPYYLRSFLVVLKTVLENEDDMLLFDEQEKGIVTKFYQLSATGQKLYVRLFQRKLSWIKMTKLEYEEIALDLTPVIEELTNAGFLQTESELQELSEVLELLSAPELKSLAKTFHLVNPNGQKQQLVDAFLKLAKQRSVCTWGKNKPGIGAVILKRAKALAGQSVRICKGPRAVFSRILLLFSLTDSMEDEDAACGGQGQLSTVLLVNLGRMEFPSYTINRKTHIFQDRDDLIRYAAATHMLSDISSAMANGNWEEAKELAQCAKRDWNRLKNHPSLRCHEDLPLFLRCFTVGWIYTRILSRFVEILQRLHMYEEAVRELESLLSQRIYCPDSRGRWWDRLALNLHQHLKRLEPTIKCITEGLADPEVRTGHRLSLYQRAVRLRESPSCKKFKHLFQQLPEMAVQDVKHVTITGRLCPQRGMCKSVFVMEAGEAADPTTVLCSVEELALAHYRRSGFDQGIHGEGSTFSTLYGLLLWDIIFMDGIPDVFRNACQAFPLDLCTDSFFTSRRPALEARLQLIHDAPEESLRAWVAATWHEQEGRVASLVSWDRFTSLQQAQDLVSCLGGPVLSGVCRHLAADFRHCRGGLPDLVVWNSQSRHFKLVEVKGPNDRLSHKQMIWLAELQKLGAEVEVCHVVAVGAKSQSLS
GFP-FAN1 N-terminal domain (aa 1-372, NTD): residues 1-372 of Q9Y2M0
GFP-FAN1 ΔNTD (aa 373-1017): residues 373-1017 of Q9Y2M0
UniProt Q93009: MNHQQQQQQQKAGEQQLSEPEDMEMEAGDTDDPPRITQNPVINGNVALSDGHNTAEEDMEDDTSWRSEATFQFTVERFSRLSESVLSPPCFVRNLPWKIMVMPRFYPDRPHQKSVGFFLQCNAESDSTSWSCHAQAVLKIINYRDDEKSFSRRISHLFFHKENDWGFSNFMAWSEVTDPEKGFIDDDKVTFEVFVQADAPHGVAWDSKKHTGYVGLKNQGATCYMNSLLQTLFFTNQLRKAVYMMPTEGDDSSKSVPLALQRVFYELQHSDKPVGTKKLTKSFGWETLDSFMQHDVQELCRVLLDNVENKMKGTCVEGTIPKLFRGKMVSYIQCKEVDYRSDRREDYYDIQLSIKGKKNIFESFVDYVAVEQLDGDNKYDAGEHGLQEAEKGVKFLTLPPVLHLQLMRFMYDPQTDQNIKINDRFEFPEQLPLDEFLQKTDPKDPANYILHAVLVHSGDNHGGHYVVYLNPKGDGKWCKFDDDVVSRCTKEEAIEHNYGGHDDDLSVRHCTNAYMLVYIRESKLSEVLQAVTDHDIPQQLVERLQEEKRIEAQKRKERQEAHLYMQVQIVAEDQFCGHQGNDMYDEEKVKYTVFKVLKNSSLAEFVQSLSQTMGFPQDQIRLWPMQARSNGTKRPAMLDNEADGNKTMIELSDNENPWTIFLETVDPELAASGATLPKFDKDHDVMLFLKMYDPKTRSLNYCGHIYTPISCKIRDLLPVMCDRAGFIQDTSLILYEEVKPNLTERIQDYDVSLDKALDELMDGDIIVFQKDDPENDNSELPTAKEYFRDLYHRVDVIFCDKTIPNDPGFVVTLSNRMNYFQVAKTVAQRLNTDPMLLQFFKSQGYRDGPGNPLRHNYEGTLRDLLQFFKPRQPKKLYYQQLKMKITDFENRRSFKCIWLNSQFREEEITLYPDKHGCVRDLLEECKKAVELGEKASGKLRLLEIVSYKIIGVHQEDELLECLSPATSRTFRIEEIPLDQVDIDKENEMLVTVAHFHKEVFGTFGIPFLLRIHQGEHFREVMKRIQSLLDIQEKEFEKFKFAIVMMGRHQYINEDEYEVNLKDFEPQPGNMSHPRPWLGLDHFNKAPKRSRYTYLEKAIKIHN
UniProt Q93008: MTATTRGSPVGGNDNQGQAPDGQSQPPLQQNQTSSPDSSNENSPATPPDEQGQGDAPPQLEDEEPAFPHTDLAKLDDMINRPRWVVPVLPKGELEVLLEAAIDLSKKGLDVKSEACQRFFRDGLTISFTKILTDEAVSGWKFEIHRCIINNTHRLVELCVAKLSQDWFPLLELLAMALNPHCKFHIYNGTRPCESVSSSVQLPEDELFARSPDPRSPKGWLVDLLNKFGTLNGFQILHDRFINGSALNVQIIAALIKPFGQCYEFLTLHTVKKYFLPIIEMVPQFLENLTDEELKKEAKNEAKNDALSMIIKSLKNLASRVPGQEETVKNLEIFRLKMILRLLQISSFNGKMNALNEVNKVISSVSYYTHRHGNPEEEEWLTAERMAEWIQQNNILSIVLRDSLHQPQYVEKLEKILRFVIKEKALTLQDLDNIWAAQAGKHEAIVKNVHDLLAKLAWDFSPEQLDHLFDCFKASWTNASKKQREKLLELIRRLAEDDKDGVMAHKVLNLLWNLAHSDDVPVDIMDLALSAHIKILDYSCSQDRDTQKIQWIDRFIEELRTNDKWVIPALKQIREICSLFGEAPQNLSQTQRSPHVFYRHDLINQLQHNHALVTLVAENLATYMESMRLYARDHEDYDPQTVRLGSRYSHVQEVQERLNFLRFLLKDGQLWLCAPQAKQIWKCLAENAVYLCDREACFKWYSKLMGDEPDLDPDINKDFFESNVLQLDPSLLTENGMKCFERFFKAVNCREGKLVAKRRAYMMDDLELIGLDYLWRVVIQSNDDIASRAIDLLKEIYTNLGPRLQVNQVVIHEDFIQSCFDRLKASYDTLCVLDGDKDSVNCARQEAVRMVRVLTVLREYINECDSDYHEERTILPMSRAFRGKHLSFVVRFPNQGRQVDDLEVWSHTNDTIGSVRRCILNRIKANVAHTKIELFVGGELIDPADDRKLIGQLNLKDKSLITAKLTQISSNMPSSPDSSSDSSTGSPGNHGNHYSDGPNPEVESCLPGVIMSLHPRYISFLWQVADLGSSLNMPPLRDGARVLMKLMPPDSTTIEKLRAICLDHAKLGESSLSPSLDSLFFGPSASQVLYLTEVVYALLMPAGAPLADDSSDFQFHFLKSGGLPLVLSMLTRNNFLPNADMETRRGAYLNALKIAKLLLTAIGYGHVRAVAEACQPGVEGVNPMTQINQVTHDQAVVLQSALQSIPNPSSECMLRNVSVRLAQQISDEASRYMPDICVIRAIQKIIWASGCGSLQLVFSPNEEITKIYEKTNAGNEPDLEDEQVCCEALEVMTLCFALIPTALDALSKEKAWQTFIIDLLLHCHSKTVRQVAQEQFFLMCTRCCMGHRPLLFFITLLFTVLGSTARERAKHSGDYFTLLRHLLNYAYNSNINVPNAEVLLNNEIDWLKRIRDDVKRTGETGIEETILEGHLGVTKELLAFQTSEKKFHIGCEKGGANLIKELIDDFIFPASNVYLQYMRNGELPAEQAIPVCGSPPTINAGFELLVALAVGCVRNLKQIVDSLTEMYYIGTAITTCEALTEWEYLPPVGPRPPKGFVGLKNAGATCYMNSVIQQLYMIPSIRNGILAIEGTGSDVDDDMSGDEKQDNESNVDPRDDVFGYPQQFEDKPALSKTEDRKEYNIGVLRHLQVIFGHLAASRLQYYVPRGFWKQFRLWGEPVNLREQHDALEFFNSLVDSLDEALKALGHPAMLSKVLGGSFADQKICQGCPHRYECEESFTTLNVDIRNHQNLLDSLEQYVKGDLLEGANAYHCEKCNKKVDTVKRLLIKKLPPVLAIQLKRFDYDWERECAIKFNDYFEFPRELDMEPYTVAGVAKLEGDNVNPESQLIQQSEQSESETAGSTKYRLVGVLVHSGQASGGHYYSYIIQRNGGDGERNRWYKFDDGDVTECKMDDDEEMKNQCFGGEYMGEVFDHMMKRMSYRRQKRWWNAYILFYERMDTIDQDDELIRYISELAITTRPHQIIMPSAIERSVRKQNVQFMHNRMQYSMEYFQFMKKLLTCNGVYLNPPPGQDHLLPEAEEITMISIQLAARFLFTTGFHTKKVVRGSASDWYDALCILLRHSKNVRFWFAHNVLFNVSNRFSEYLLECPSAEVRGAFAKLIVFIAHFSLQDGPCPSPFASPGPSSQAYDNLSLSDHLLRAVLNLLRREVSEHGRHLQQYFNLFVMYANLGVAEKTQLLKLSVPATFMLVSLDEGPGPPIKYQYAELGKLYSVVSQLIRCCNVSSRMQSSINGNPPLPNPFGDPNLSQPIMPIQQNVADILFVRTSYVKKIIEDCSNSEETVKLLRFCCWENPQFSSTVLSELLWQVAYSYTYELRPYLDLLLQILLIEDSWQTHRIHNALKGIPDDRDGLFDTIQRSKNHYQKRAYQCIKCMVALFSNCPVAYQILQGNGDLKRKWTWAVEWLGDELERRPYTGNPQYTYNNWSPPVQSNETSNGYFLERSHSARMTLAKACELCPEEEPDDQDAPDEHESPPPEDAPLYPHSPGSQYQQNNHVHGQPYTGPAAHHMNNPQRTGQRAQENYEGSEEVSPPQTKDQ

No constants are given. Whether binding was seen depends on the method and setting. In cells and extracts the contact can be indirect. Some binding calls cover weakened binding; strength is not graded here.

Test [1] addresses endogenous FAN1 (HeLa cells) (human (endogenous in HeLa)) (UniProt Q9Y2M0). Briefly: proximity ligation; in situ PLA (Duolink) in pre-extracted, fixed HeLa parental and FAN1 KO cells, mock-treated or treated with MMC (150 ng/ml, 24 h).
Test [2] shares this target. The experiment in a line: co-IP; anti-FAN1 rabbit polyclonal antibody and Protein A Sepharose on 5 mg HeLa nuclear extract; 20 mM HEPES pH 7.9, 100 mM KCl; overnight, 4 °C; immunoblotting. Background: Immunoblotting shows a protein as a band on a membrane.
The target in test [3] is FLAG-USP7 D164A/W165A (TRAF domain mutant), full-length (human) (UniProt Q93009). The experiment in a line: co-IP; anti-FLAG M2 affinity resin on whole-cell extracts of HEK293, HEK293 eGFP-FAN1 (Dox-induced) or HEK293T cells transfected with FLAG-USP7 constructs; NP-40 buffer with 120 mM NaCl, Benzonase; 4 °C; immunoblotting.
In test [4] the target is FLAG-USP7 wt, full-length (human) (UniProt Q93009). The description is as above.
The target in test [5] is GFP-FAN1 N-terminal domain (aa 1-372, NTD) (human) (UniProt Q9Y2M0). Briefly: co-IP; GFP-Trap agarose on whole-cell extracts (HEK293 eGFP-FAN1 cells induced with Dox, or HEK293 cells transfected with GFP-FAN1 constructs, with FLAG-USP7 in Fig. 1G); NP-40 buffer with 120 mM NaCl, Benzonase; 2 h or overnight, 4 °C; immunoblotting.
The target in test [6] is GFP-FAN1 ΔNTD (aa 373-1017) (human) (UniProt Q9Y2M0). Described as above.
For test [7], the target named is GFP-FAN1 wild-type (wt), full-length (human) (UniProt Q9Y2M0). The description is as above.
For test [8], the target named is full-length GFP-FAN1 S184A (human) (UniProt Q9Y2M0). The test is described as above.

With “endogenous USP7 (HeLa cells) (from UniProt Q93009 1-1102) (enzyme)”, the binding entry in test [1] and in test [2] was “binds” throughout.
Regarding “endogenous FAN1 (HEK293 and HEK293T cells) (from UniProt Q9Y2M0 1-1017)”, the binding entry in test [3] was “binds weakly”; in test [4], “binds”.
Turning to “GFP-FAN1 wild-type (wt), full-length (from UniProt Q9Y2M0 1-1017)”, the binding entry is “binds weakly” in test [3] and “binds” in test [4].
Consider “FLAG-USP7 wt, full-length (from UniProt Q93009 1-1102) (enzyme)”, for which the binding entry in test [5] is recorded as “binds”; in test [6] it was “no binding”.
With “endogenous USP7 (HEK293 cells) (from UniProt Q93009 1-1102) (enzyme)”, the binding result in test [7] and in test [8] was “binds” each time.
As to “endogenous USP9X (HEK293 cells) (from UniProt Q93008 1-2554) (enzyme)”, the binding entry in test [7] is recorded as “binds”.
